Laboratory results: the supplement of paper PMC3334620
The full ranking holds about 33,000 sequences; the median of “E-score (-0.5 to 0.5)” is about -0.012, and the highest 2% start at about 0.27. Some of the results follow.

Target: T1, Vhr1 (UniProt P40522)
T1 sequence: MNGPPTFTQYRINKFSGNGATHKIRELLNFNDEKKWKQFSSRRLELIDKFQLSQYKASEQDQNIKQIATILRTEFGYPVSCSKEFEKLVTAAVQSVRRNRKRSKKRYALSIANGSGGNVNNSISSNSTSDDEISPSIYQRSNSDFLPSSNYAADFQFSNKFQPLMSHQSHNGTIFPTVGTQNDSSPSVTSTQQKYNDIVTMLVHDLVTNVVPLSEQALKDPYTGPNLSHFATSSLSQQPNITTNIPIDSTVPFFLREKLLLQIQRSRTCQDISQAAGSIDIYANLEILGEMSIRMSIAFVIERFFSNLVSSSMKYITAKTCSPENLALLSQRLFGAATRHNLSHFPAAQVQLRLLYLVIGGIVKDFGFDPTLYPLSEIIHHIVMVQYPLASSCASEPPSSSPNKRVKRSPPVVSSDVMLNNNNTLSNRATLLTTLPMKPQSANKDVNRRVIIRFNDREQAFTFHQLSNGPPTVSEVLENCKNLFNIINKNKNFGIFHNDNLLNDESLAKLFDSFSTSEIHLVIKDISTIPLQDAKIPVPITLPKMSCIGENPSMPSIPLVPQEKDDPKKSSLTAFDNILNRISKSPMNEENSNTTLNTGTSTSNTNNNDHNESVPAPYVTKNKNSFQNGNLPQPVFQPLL
Experiment: PBM E-score (8-mer binding enrichment) (E-score (-0.5 to 0.5)); higher = stronger / more preferred TF binding; most listed sequences are background and not binding sites
Details: protein concentration: 200 nM; construct: GST-full length
Method in brief: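 E-scores (a modified Wilcoxon-Mann-Whitney statistic) were assigned by the Universal PBM Analysis Suite to every ungapped eight-base word pooled with its reverse complement. The input came from universal all-10-mer Agilent arrays made double-stranded by primer extension and probed with GST-tagged yeast transcription factors at about 100-200 nM. Fluorescent anti-GST detected bound protein, and masliner normalised the scans.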

| Sequence | PBM E-score |
| --- | --- |
| GATTCACC | 0.243 |
| AGCGCACC | -0.0726 |
| ACGGTCGC | -0.152 |
| TCGACGCA | 0.109 |
| CATTAAGC | -0.0626 |
| CTGTCATC | -0.12 |
| GTATATAC | 0.0568 |
| AAACTCCG | -0.0785 |
| ACCTTTAA | -0.23 |
| AGTTAAAA | -0.22 |
| GCCCCTAC | -0.0944 |
| GGATAGCC | 0.0616 |
| ACAAGGTA | -0.116 |
| CCGAACAC | 0.00261 |
| GTAGTCAA | 0.262 |
| CGGGAACC | 0.018 |
| AAGTGTTC | -0.0599 |
| AAGTATGA | 0.124 |
| TCGTAAGA | -0.0781 |
| GTGTAACA | 0.149 |
| ATTGCTAC | -0.105 |
| AAGAGAAT | -0.0563 |
| CTCTGAGC | 0.0817 |
| AAAGGACC | -0.166 |
| AACACTCG | 0.00575 |

| Sequence | PBM E-score |
| --- | --- |
| GGTCCACA | -0.0137 |
| CTGGCCCC | -0.0906 |
| CTACTGGC | -0.0587 |
| CTCCAGCA | -0.00643 |
| ATGACCAA | -0.0198 |
| AATAGCGC | 0.114 |
| ACTAAGAA | 0.0801 |
| AGGAACAA | -0.108 |
| TACATTGA | 0.0911 |
| TATGAGGA | -0.0561 |
| AGTTCGGC | -0.15 |
| ACGTTACG | -0.054 |
| TATCCCAA | -0.163 |
| ACGACACG | 0.093 |
| GTAACCCA | 0.231 |
| AGACTTAG | -0.0914 |
| CATATCAC | 0.0186 |
| ATTGTAGC | -0.0849 |
| AGGTATCA | -0.00362 |
| ATCTATCC | 0.0763 |
| CCCACTCA | 0.0948 |
| CCTAGTTA | -0.0525 |
| CATCGTAG | -0.0503 |
| ACGCTTAC | -0.205 |
| ACGAGTCC | 0.0781 |

| Sequence | PBM E-score |
| --- | --- |
| GGCCATAC | 0.0276 |
| GGACCAAA | -0.0274 |
| CACTAGCG | -0.152 |
| CCAGGGTA | 0.071 |
| GCGGGCTA | -0.119 |
| GATTACTA | 0.121 |
| AAACCCCG | 0.171 |
| ACGAGCAT | 0.0404 |
| CCGTACTA | 0.177 |
| CAAGGTCC | -0.0834 |
| AGCTTTCG | -0.388 |
| GCACAAGA | -0.0127 |
| TCCCGAGA | -0.0263 |
| GTCACCAC | 0.0904 |
| ACCAACGA | 0.0931 |
| CTTTGGAC | 0.0623 |
| CAAGCCTA | -0.191 |
| ATTCTCGG | -0.094 |
| GCCAGTGA | -0.122 |
| CGCTGAAC | -0.167 |
| AACGACGC | -0.0318 |
| ACTCTCCA | -0.00442 |
| ATCCCTTC | -0.0156 |
| CGCCCAAA | 0.035 |
| CAACCCGC | 0.272 |

| Sequence | PBM E-score |
| --- | --- |
| CTTGAACC | 0.0593 |
| AATATATT | 0.284 |
| TCACAGAA | 0.0529 |
| GACAGCCA | 0.0276 |
| CCATAAAA | -0.0394 |
| ACAATATG | 0.325 |
| ACATCACC | -0.0635 |
| AACGCCTG | -0.0483 |
| CACTTACG | 0.0636 |
| CGTGTAGC | 0.0546 |
| CCGAACAG | -0.0142 |
| ACTCTAAC | 0.09 |
| GATGAATC | 0.249 |
| ACAAAATA | -0.0636 |
| AATTCTTG | -0.216 |
| AGTCGCAC | 0.296 |
| AGTGAGTG | 0.00138 |
| CGATTCCC | 0.142 |
| AGCCGCCC | 0.0712 |
| CTATACTC | 0.164 |
| CTCGCGGC | 0.134 |
| AGAAGGCT | -0.344 |
| GGGAGTGA | 0.0808 |
| CCTGACCC | 0.0869 |
| TACGGTAA | -0.185 |

| Sequence | PBM E-score |
| --- | --- |
| CAGCGCTA | 0.00815 |
| CTAACCAA | 0.178 |
| CAGGGTAC | -0.118 |
| CAGCCGGC | -0.00649 |
| AACCCGAT | 0.0738 |
| CCGTAGTA | -0.0102 |
| GGCTTCAA | -0.235 |
| ATACTGAT | 0.155 |
| GCTGAACA | -0.00858 |
| CCTCGAAG | -0.0314 |
| ATAAAGTC | 0.107 |
| AGGTTATA | -0.0713 |
| CCTGAAAG | -0.141 |
| AGGCAACG | -0.113 |
| GATTGGTA | 0.178 |
| CTTTGTGA | 0.00044 |
| CCTTCTCA | -0.0633 |
| AGCTTTGA | -0.0613 |
| CGGAAGTC | 0.0873 |
| ACCCGGCC | -0.241 |
| AAAGAGTA | -0.174 |
| GCGCGCGC | 0.379 |
| GGCCCTAC | -0.191 |
| GACCCCTC | -0.0392 |
| GACCACAC | 0.0574 |

| Sequence | PBM E-score |
| --- | --- |
| AGGTGTCC | 0.0962 |
| AAGAAAGT | -0.0406 |
| GGTCATCA | 0.136 |
| ACTCACGC | 0.366 |
| CATCGTAA | 0.184 |
| ACTCTATA | 0.0821 |
| GTGCAATA | -0.0141 |
| AAATGCGC | 0.168 |
| GACCCATA | 0.251 |
| GATAATGA | 0.0842 |
| AACCGTTA | -0.0869 |
| AACCGCCG | 0.119 |
| AACAGGAC | 0.084 |
| AGACAATG | -0.0688 |
| GAGCTACA | -0.168 |
| CATATATA | 0.256 |
| AGGGACCC | -0.215 |
| CCTGAGAC | 0.014 |
| ACGATCGG | -0.0237 |
| CGCCGTTC | -0.0909 |
| TCCTTTCA | -0.122 |
| AGTAAAGC | -0.0939 |
| AGATAAGC | -0.091 |
| CGTAAGTA | -0.127 |
| CCCAAAGG | -0.127 |

| Sequence | PBM E-score |
| --- | --- |
| CTCACATC | 0.124 |
| AGTAAGCC | -0.116 |
| AAGGTCTG | 0.0962 |
| ATTTCGCA | 0.074 |
| CCAATTCG | -0.173 |
| CCTCTTAA | -0.0311 |
| CATTGCTA | 0.00135 |
| CCACTACA | 0.0708 |
| AGGGAGAA | -0.106 |
| CAACCAAA | 0.137 |
| AACTCTAC | -0.213 |
| ACAAGTAG | 0.0126 |
| AGACGTTC | -0.178 |
| ATGCGCCA | 0.0153 |
| ACCTAAAG | -0.258 |
| GTCAAGAC | -0.0573 |
| CCAAACCG | 0.157 |
| GCTCCGAC | 0.0683 |
| ATCTGGGC | -0.0127 |
| ATTCTGCA | 0.0255 |
| GCAGTCCA | 0.0282 |
| ATTGTGGG | 0.156 |
| AGCGCGAT | 0.121 |
| CTTATCGC | -0.0118 |
| TGGCACCA | -0.205 |

| Sequence | PBM E-score |
| --- | --- |
| GACCGCAC | -0.0239 |
| ACGGTTCC | 0.0377 |
| ACTCCGTA | 0.0628 |
| AGACCAGC | -0.133 |
| CAAGATAA | 0.0275 |
| ATATGTAA | -0.0851 |
| ATAATGGG | 0.163 |
| CGGACGAC | 0.154 |
| ATCGACTA | 0.0457 |
| TATCAGCA | 0.0946 |
| CAAGATGA | 0.115 |
| ACCCAAGG | 0.095 |
| TAACGGGA | -0.0715 |
| ACGGAACT | -0.0293 |
| AGAGATCA | -0.169 |
| CTGTAATC | 0.0295 |
| ATCGAAAT | 0.0284 |
| CAAGTTCG | -0.0825 |
| CAGGTTTA | 0.106 |
| ATGAGAAA | -0.227 |
| TAAGACGA | -0.192 |
| AGCGATGA | 0.167 |
| AATAAGCC | -0.0921 |
| ACTGGTCT | -0.128 |
| CGCAGTTA | -0.0699 |

| Sequence | PBM E-score |
| --- | --- |
| CCGCCTGA | 0.171 |
| ATGAGCAT | 0.0955 |
| GAATCACC | 0.392 |
| GTATCGCA | -0.0516 |
| CGGGACCG | -0.0295 |
| ACTAGACT | 0.00957 |
| AGTGTCAA | 0.0559 |
| CAGATATC | 0.24 |
| ACGGTGCC | -0.0596 |
| ACAAAGTC | -0.00877 |
| CCGCTGAC | 0.0403 |
| AGTGAAAA | -0.0597 |
| ACCTAGGT | 0.0622 |
| CCCGCACG | 0.0854 |
| CGTCGGAG | 0.0698 |
| GGGCGCCC | 0.249 |
| CACGTCTC | -0.16 |
| ATAAACCG | 0.144 |
| CTAATGCA | -0.00665 |
